{
  "source": "the supplement of paper PMC8728848",
  "binders": {"B1": {"name": "Calsepa (Calystegia sepium), P93114 (protein)", "chain": "MAVPMDTISGPWGNNGGNFWSFRPVNKINQIVISYGGGGNNPIALTFSSTKADGSKDTITVGGGGPDSITGTEMVNIGTDEYLTGISGTFGIYLDNNVLRSITFTTNLKAHGPYGQKVGTPFSSANVVGNEIVGFLGRSGYYVDAIGTYNRHK"}},
  "test_in_all_cases": "glycan array binding signal (z-score within array); higher = stronger binding",
  "conditions_in_all_cases": "glycan notation: IUPAC condensed, linker removed",
  "key": {"[1]": {"biological_target": "GalNAc(b1-4)GlcNAc(b1-2)Man(a1-3)[GalNAc(b1-4)GlcNAc(b1-2)Man(a1-6)]Man(b1-4)GlcNAc(b1-4)GlcNAc", "outline": "(§1)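 From the Consortium for Functional Glycomics database, 3228 arrays were curated, keeping only those whose protein sequence was available. Binding is given as a within-array Z-score averaged across arrays sharing a protein sequence and across linkers. Negative Z-scores can be read as non-binding.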"}, "GalNAc(b1-4)GlcNAc6S": {"biological_target": "GalNAc(b1-4)GlcNAc6S", "outline": "as §1"}, "GalNAc(b1-6)GalNAc": {"biological_target": "GalNAc(b1-6)GalNAc", "outline": "as §1"}, "GalNAc3S(b1-4)GlcNAc": {"biological_target": "GalNAc3S(b1-4)GlcNAc", "outline": "as §1"}, "GalNAc3S(b1-4)GlcNAc3S": {"biological_target": "GalNAc3S(b1-4)GlcNAc3S", "outline": "as §1"}, "GalNAc4S6S(b1-4)GlcNAc": {"biological_target": "GalNAc4S6S(b1-4)GlcNAc", "outline": "as §1"}, "GalNAc6S(b1-4)GlcNAc": {"biological_target": "GalNAc6S(b1-4)GlcNAc", "outline": "as §1"}, "Glc(a1-4)Glc": {"biological_target": "Glc(a1-4)Glc", "outline": "as §1"}, "[2]": {"biological_target": "Glc(a1-4)Glc(a1-4)Glc(a1-4)Glc", "outline": "as §1"}, "Glc(a1-6)Glc(a1-6)Glc": {"biological_target": "Glc(a1-6)Glc(a1-6)Glc", "outline": "as §1"}, "[3]": {"biological_target": "Glc(a1-6)Glc(a1-6)Glc(a1-6)Glc", "outline": "as §1"}, "Glc(b1-4)Glc": {"biological_target": "Glc(b1-4)Glc", "outline": "as §1"}, "Glc(b1-6)Glc": {"biological_target": "Glc(b1-6)Glc", "outline": "as §1"}, "GlcA(b1-3)Gal": {"biological_target": "GlcA(b1-3)Gal", "outline": "as §1"}, "GlcA(b1-3)GlcNAc": {"biological_target": "GlcA(b1-3)GlcNAc", "outline": "as §1"}, "GlcA(b1-6)Gal": {"biological_target": "GlcA(b1-6)Gal", "outline": "as §1"}, "[4]": {"biological_target": "GlcNAc(a1-3)Gal(b1-4)GlcNAc", "outline": "as §1"}, "[5]": {"biological_target": "GlcNAc(a1-4)Gal(b1-3)GlcNAc", "outline": "as §1"}, "[6]": {"biological_target": "GlcNAc(a1-4)Gal(b1-4)GalNAc", "outline": "as §1"}, "[7]": {"biological_target": "GlcNAc(a1-4)Gal(b1-4)GlcNAc", "outline": "as §1"}, "[8]": {"biological_target": "GlcNAc(a1-4)Gal(b1-4)GlcNAc(b1-3)Gal(b1-4)Glc", "outline": "as §1"}, "[9]": {"biological_target": "GlcNAc(a1-4)Gal(b1-4)GlcNAc(b1-3)Gal(b1-4)GlcNAc", "outline": "as §1"}, "[10]": {"biological_target": "GlcNAc(a1-4)Gal(b1-4)GlcNAc(b1-3)Gal(b1-4)GlcNAc(b1-3)Gal(b1-4)GlcNAc", "outline": "as §1"}, "[11]": {"biological_target": "GlcNAc(a1-4)Gal(b1-4)GlcNAc(b1-3)Gal(b1-4)[Fuc(a1-3)]GlcNAc(b1-3)Gal(b1-4)[Fuc(a1-3)]GlcNAc", "outline": "as §1"}, "[12]": {"biological_target": "GlcNAc(a1-6)Gal(b1-4)GlcNAc", "outline": "as §1"}, "[13]": {"biological_target": "GlcNAc(b1-2)Gal(b1-3)GalNAc", "outline": "as §1"}, "[14]": {"biological_target": "GlcNAc(b1-2)Man(a1-3)[GlcNAc(b1-2)Man(a1-6)]Man(b1-4)GlcNAc(b1-4)GlcNAc", "outline": "as §1"}, "[15]": {"biological_target": "GlcNAc(b1-2)Man(a1-3)[GlcNAc(b1-2)Man(a1-6)]Man(b1-4)GlcNAc(b1-4)[Fuc(a1-6)]GlcNAc", "outline": "as §1"}, "[16]": {"biological_target": "GlcNAc(b1-2)Man(a1-3)[GlcNAc(b1-4)][GlcNAc(b1-2)Man(a1-6)]Man(b1-4)GlcNAc(b1-4)GlcNAc", "outline": "as §1"}, "[17]": {"biological_target": "GlcNAc(b1-2)[GlcNAc(b1-4)]Man(a1-3)[GlcNAc(b1-2)Man(a1-6)]Man(b1-4)GlcNAc(b1-4)GlcNAc", "outline": "as §1"}, "[18]": {"biological_target": "GlcNAc(b1-2)[GlcNAc(b1-4)]Man(a1-3)[GlcNAc(b1-4)][GlcNAc(b1-2)Man(a1-6)]Man(b1-4)GlcNAc(b1-4)GlcNAc", "outline": "as §1"}, "[19]": {"biological_target": "GlcNAc(b1-2)[GlcNAc(b1-4)]Man(a1-3)[GlcNAc(b1-4)][GlcNAc(b1-2)[GlcNAc(b1-6)]Man(a1-6)]Man(b1-4)GlcNAc(b1-4)GlcNAc", "outline": "as §1"}, "[20]": {"biological_target": "GlcNAc(b1-2)[GlcNAc(b1-4)]Man(a1-3)[GlcNAc(b1-4)][GlcNAc(b1-2)[GlcNAc(b1-6)]Man(a1-6)]Man(b1-4)GlcNAc(b1-4)[Fuc(a1-6)]GlcNAc", "outline": "as §1"}, "[21]": {"biological_target": "GlcNAc(b1-2)[GlcNAc(b1-6)]Man(a1-6)[GlcNAc(b1-2)Man(a1-3)]Man(b1-4)GlcNAc(b1-4)GlcNAc", "outline": "as §1"}, "[22]": {"biological_target": "GlcNAc(b1-2)[GlcNAc(b1-6)]Man(a1-6)[GlcNAc(b1-2)Man(a1-3)]Man(b1-4)GlcNAc(b1-4)[Fuc(a1-6)]GlcNAc", "outline": "as §1"}, "[23]": {"biological_target": "GlcNAc(b1-2)[GlcNAc(b1-6)]Man(a1-6)[GlcNAc(b1-2)Man(a1-3)][GlcNAc(b1-4)]Man(b1-4)GlcNAc(b1-4)GlcNAc", "outline": "as §1"}, "GlcNAc(b1-3)Gal": {"biological_target": "GlcNAc(b1-3)Gal", "outline": "as §1"}, "[24]": {"biological_target": "GlcNAc(b1-3)Gal(b1-3)GalNAc", "outline": "as §1"}, "GlcNAc(b1-3)Gal(b1-4)Glc": {"biological_target": "GlcNAc(b1-3)Gal(b1-4)Glc", "outline": "as §1"}, "[25]": {"biological_target": "GlcNAc(b1-3)Gal(b1-4)GlcNAc", "outline": "as §1"}, "[26]": {"biological_target": "GlcNAc(b1-3)Gal(b1-4)GlcNAc(b1-3)Gal(b1-4)GlcNAc", "outline": "as §1"}, "GlcNAc(b1-3)GalNAc": {"biological_target": "GlcNAc(b1-3)GalNAc", "outline": "as §1"}, "GlcNAc(b1-3)Man": {"biological_target": "GlcNAc(b1-3)Man", "outline": "as §1"}, "[27]": {"biological_target": "GlcNAc(b1-3)[GlcNAc(b1-4)][GlcNAc(b1-6)]GlcNAc", "outline": "as §1"}, "[28]": {"biological_target": "GlcNAc(b1-3)[GlcNAc(b1-6)]Gal(b1-4)GlcNAc", "outline": "as §1"}},
  "note": "Some of the results follow.",
  "data": [
    {"binder": "B1", "values": [
      {"measurement": "glycan array binding signal (z-score)", "setting": "[1]", "value": -0.201},
      {"measurement": "glycan array binding signal (z-score)", "setting": "GalNAc(b1-4)GlcNAc6S", "value": -0.274},
      {"measurement": "glycan array binding signal (z-score)", "setting": "GalNAc(b1-6)GalNAc", "value": -0.27},
      {"measurement": "glycan array binding signal (z-score)", "setting": "GalNAc3S(b1-4)GlcNAc", "value": -0.271},
      {"measurement": "glycan array binding signal (z-score)", "setting": "GalNAc3S(b1-4)GlcNAc3S", "value": -0.268},
      {"measurement": "glycan array binding signal (z-score)", "setting": "GalNAc4S6S(b1-4)GlcNAc", "value": -0.269},
      {"measurement": "glycan array binding signal (z-score)", "setting": "GalNAc6S(b1-4)GlcNAc", "value": -0.271},
      {"measurement": "glycan array binding signal (z-score)", "setting": "Glc(a1-4)Glc", "value": -0.246},
      {"measurement": "glycan array binding signal (z-score)", "setting": "[2]", "value": -0.273},
      {"measurement": "glycan array binding signal (z-score)", "setting": "Glc(a1-6)Glc(a1-6)Glc", "value": -0.249},
      {"measurement": "glycan array binding signal (z-score)", "setting": "[3]", "value": -0.276},
      {"measurement": "glycan array binding signal (z-score)", "setting": "Glc(b1-4)Glc", "value": -0.247},
      {"measurement": "glycan array binding signal (z-score)", "setting": "Glc(b1-6)Glc", "value": -0.248},
      {"measurement": "glycan array binding signal (z-score)", "setting": "GlcA(b1-3)Gal", "value": -0.244},
      {"measurement": "glycan array binding signal (z-score)", "setting": "GlcA(b1-3)GlcNAc", "value": -0.245},
      {"measurement": "glycan array binding signal (z-score)", "setting": "GlcA(b1-6)Gal", "value": -0.25},
      {"measurement": "glycan array binding signal (z-score)", "setting": "[4]", "value": -0.239},
      {"measurement": "glycan array binding signal (z-score)", "setting": "[5]", "value": -0.24},
      {"measurement": "glycan array binding signal (z-score)", "setting": "[6]", "value": -0.237},
      {"measurement": "glycan array binding signal (z-score)", "setting": "[7]", "value": -0.243},
      {"measurement": "glycan array binding signal (z-score)", "setting": "[8]", "value": -0.253},
      {"measurement": "glycan array binding signal (z-score)", "setting": "[9]", "value": -0.249},
      {"measurement": "glycan array binding signal (z-score)", "setting": "[10]", "value": -0.246},
      {"measurement": "glycan array binding signal (z-score)", "setting": "[11]", "value": -0.14},
      {"measurement": "glycan array binding signal (z-score)", "setting": "[12]", "value": -0.246},
      {"measurement": "glycan array binding signal (z-score)", "setting": "[13]", "value": -0.245},
      {"measurement": "glycan array binding signal (z-score)", "setting": "[14]", "value": 1.48},
      {"measurement": "glycan array binding signal (z-score)", "setting": "[15]", "value": -0.115},
      {"measurement": "glycan array binding signal (z-score)", "setting": "[16]", "value": 5},
      {"measurement": "glycan array binding signal (z-score)", "setting": "[17]", "value": -0.261},
      {"measurement": "glycan array binding signal (z-score)", "setting": "[18]", "value": -0.258},
      {"measurement": "glycan array binding signal (z-score)", "setting": "[19]", "value": -0.222},
      {"measurement": "glycan array binding signal (z-score)", "setting": "[20]", "value": -0.271},
      {"measurement": "glycan array binding signal (z-score)", "setting": "[21]", "value": 1.41},
      {"measurement": "glycan array binding signal (z-score)", "setting": "[22]", "value": -0.153},
      {"measurement": "glycan array binding signal (z-score)", "setting": "[23]", "value": 5.82},
      {"measurement": "glycan array binding signal (z-score)", "setting": "GlcNAc(b1-3)Gal", "value": -0.248},
      {"measurement": "glycan array binding signal (z-score)", "setting": "[24]", "value": -0.249},
      {"measurement": "glycan array binding signal (z-score)", "setting": "GlcNAc(b1-3)Gal(b1-4)Glc", "value": -0.243},
      {"measurement": "glycan array binding signal (z-score)", "setting": "[25]", "value": -0.244},
      {"measurement": "glycan array binding signal (z-score)", "setting": "[26]", "value": -0.255},
      {"measurement": "glycan array binding signal (z-score)", "setting": "GlcNAc(b1-3)GalNAc", "value": -0.254},
      {"measurement": "glycan array binding signal (z-score)", "setting": "GlcNAc(b1-3)Man", "value": -0.255},
      {"measurement": "glycan array binding signal (z-score)", "setting": "[27]", "value": -0.241},
      {"measurement": "glycan array binding signal (z-score)", "setting": "[28]", "value": -0.254}
    ]}
  ]
}
